Assay results as given in a collection of fitness landscapes (doi:10.1126/science.1257360).
This is one part of the list.

B1: PhoQ; a variant is named by its letters at X, in order, P23837 (parent)
chain: MKKLLRLFFPLSLRVRFLLATAAVVLVLSLAYGMVALIGYSVSFDKTTFRLLRGESNLFYTLAKWENNKLHVELPENIDKQSPTMTLIYDENGQLLWAQRDVPWLMKMIQPDWLKSNGFHEIEADVNDTSLLLSGDHSIQQQLQEVREDDDDAEMTHSVAVNVYPATSRMPKLTIVVVDTIPVELKSSYMVWSWFIYVLSANLLLVIPLLWVAAWWSLRPIEALAKEVRELEEHNRELLNPATTRELTSLVRNLNRLLKSERERYDKYRTTLTDLTHSLKTPLXXLQXXLRSLRSEKMSVSDAEPVMLEQISRISQQIGYYLHRASMRGGTLLSRELHPVAPLLDNLTSALNKVYQRKGVNISLDISPEISFVGEQNDFVEVMGNVLDNACKYCLEFVEISARQTDEHLYIVVEDDGPGIPLSKREVIFDRGQRVDTLRPGQGVGLAVAREITEQYEGKIVAGESMLGGARMEVIFGRQHSAPKDE

Variants of: B1
Assay: enrichment ratio after two sorts for PhoP signalling (ratio (wild type AVST 3.29)); higher = more functional
Conditions: with PhoP (E. coli)

Row | Variant | enrichment ratio
1 | MIFI | 4.01
2 | QPTV | ≤ 0.25
3 | VNAW | ≤ 0.25
4 | GSKM | ≤ 0.25
5 | VALH | 1.54
6 | ICGN | ≤ 0.25
7 | YHME | ≤ 0.25
8 | SNSL | 16.8
9 | HWCP | ≤ 0.25
10 | KHIY | ≤ 0.25
11 | DNKN | ≤ 0.25
12 | QMRH | ≤ 0.25
13 | YFMY | ≤ 0.25
14 | DCAD | ≤ 0.25
15 | DHWR | ≤ 0.25
16 | PVEK | ≤ 0.25
17 | LVGD | ≤ 0.25
18 | VNFE | ≤ 0.25
19 | FWSS | ≤ 0.25
20 | GWFV | ≤ 0.25
21 | PPIW | ≤ 0.25
22 | FIWG | ≤ 0.25
23 | LFFQ | ≤ 0.25
24 | RTWG | ≤ 0.25
25 | CVCF | ≤ 0.25
26 | ANCW | 6.44

Row | Variant | enrichment ratio
27 | SIWN | 4.21
28 | GRAP | ≤ 0.25
29 | DHHM | ≤ 0.25
30 | QQTD | ≤ 0.25
31 | IVPG | ≤ 0.25
32 | NIRD | ≤ 0.25
33 | LIGH | ≤ 0.25
34 | KDNK | ≤ 0.25
35 | VGIT | ≤ 0.25
36 | MVKC | ≤ 0.25
37 | EEGF | ≤ 0.25
38 | TKKC | ≤ 0.25
39 | NYWY | ≤ 0.25
40 | EGNT | ≤ 0.25
41 | FMSM | ≤ 0.25
42 | QGES | ≤ 0.25
43 | VMMA | ≤ 0.25
44 | NLTT | ≤ 0.25
45 | DCGL | ≤ 0.25
46 | GFYW | ≤ 0.25
47 | FLME | ≤ 0.25
48 | DPIE | ≤ 0.25
49 | NVAK | ≤ 0.25
50 | NYKI | ≤ 0.25
51 | KMVP | ≤ 0.25
52 | MGGP | ≤ 0.25

Row | Variant | enrichment ratio
53 | LLYG | ≤ 0.25
54 | VAGQ | ≤ 0.25
55 | VIPN | ≤ 0.25
56 | DPYC | ≤ 0.25
57 | SPDL | ≤ 0.25
58 | WTTL | ≤ 0.25
59 | FRDV | ≤ 0.25
60 | VSDM | ≤ 0.25
61 | KKSF | ≤ 0.25
62 | VCCV | ≤ 0.25
63 | NFTF | ≤ 0.25
64 | WIQN | ≤ 0.25
65 | WQWR | ≤ 0.25
66 | GAFM | ≤ 0.25
67 | IRNK | ≤ 0.25
68 | IWTN | ≤ 0.25
69 | SQCA | 8.55
70 | VFCK | ≤ 0.25
71 | PAKE | ≤ 0.25
72 | YRKQ | ≤ 0.25
73 | ESGK | ≤ 0.25
74 | PIHD | ≤ 0.25
75 | SCSA | 9.03
76 | IQDS | ≤ 0.25
77 | SWGD | ≤ 0.25
78 | DTWG | ≤ 0.25

Row | Variant | enrichment ratio
79 | WHVA | ≤ 0.25
80 | THVE | ≤ 0.25
81 | DTPW | ≤ 0.25
82 | TLLH | ≤ 0.25
83 | NTCM | ≤ 0.25
84 | LNHE | ≤ 0.25
85 | RDYM | ≤ 0.25
86 | ADQH | ≤ 0.25
87 | LPPA | ≤ 0.25
88 | HDKT | ≤ 0.25
89 | REAF | ≤ 0.25
90 | NDEL | ≤ 0.25
91 | EHTN | ≤ 0.25
92 | ARYD | ≤ 0.25
93 | KPIH | ≤ 0.25
94 | WLTM | ≤ 0.25
95 | YANY | ≤ 0.25
96 | TNRE | ≤ 0.25
97 | VMIN | ≤ 0.25
98 | RSVE | ≤ 0.25
99 | LISI | ≤ 0.25
100 | WETS | ≤ 0.25
101 | PVLE | ≤ 0.25
102 | WDVM | ≤ 0.25
103 | ESVE | ≤ 0.25
104 | NCQR | ≤ 0.25

Row | Variant | enrichment ratio
105 | PGLN | ≤ 0.25
106 | HFLN | ≤ 0.25
107 | REHA | 1.44
108 | NTVL | ≤ 0.25
109 | LMVA | ≤ 0.25
110 | KHPI | ≤ 0.25
111 | SYLR | ≤ 0.25
112 | RFSE | ≤ 0.25
113 | VFGQ | ≤ 0.25
114 | LAMY | ≤ 0.25
115 | HFDD | ≤ 0.25
116 | FRPI | ≤ 0.25
117 | VHAT | ≤ 0.25
118 | VVTD | ≤ 0.25
119 | NKAV | ≤ 0.25
120 | SGHE | ≤ 0.25
121 | HQMW | ≤ 0.25
122 | LARM | ≤ 0.25
123 | SEYM | 19.4
124 | QEVT | ≤ 0.25
125 | PHDE | ≤ 0.25
126 | LRRS | ≤ 0.25
127 | RLWY | ≤ 0.25
128 | KFQC | ≤ 0.25
129 | KNRL | ≤ 0.25
130 | TQQF | 33.4

Row | Variant | enrichment ratio
131 | HMCK | ≤ 0.25
132 | SLNW | ≤ 0.25
133 | AAPQ | ≤ 0.25
134 | CSPV | ≤ 0.25
135 | PYAL | ≤ 0.25
136 | PWCL | ≤ 0.25
137 | ATYI | ≤ 0.25
138 | IFID | ≤ 0.25
139 | YDPF | ≤ 0.25
140 | STLQ | 18.3
141 | YSSC | ≤ 0.25
142 | DAVW | ≤ 0.25
143 | SLPV | 1.39
144 | FIAP | ≤ 0.25
145 | RFLH | ≤ 0.25
146 | EDMD | ≤ 0.25
147 | SQDF | ≤ 0.25
148 | QNIG | ≤ 0.25
149 | TRNH | ≤ 0.25
150 | EAPN | ≤ 0.25
151 | DGMD | ≤ 0.25
152 | YQCY | ≤ 0.25
153 | SQGH | 4.25
